43 molecules from ChEMBL document CHEMBL4888484, “Replenishing the malaria drug discovery pipeline: Screening and hit evaluation of the MMV Hit Generation Library 1 (HGL1) against asexual blood stage Plasmodium falciparum ,using a nano luciferase reporter read-out” (2022) can be followed below.

In all, about 150,000 compounds went through this assay and about 540 (0.36%) showed an effect of 50% or more. Some of the results follow.

For the assay, the system named is Plasmodium falciparum. The experiment in a line: Primary screen in NF54 nanoGlo assay, in single point, at 2uM, 72h; a lower Z score goes with more inhibition. It counts as functional, Erythrocyte. Conditions: timepoint 72 hour.
For `CCn1ncc(NC(=O)c2ccccc2OC)c(N2CCCCC2)c1=O`, the % Inhibition (commonly the change of the read-out against control, counted positive when it falls) is -10% and the Z score amounted to 1.99.

For `CC[C@@H](CO)NCc1ccc(OC)c(OC)c1`, the “% Inhibition” value was -6% and the Z score is recorded as 1.06.

For `C#CCCC1(CCC(=O)N2CCN(c3ccccn3)CC2)N=N1`, the “% Inhibition” value is -3% and the Z score is recorded as 0.31.

Regarding `COC(=O)CCNC(=O)c1ccc(N)cc1`, the “% Inhibition” value was -8% and the Z score is on record as 1.11.

In the case of `Cc1cccc(-c2noc(-c3cccnc3NCc3ccccn3)n2)c1`, the “% Inhibition” value is 28% and the Z score is on record as -3.27.

On to `CCc1cccc2c1NC(=O)C21NC(CCC(N)=O)[C@H]2C(=O)N(CCc3ccccc3)C(=O)[C@H]21` (stereo partly specified), for which the “% Inhibition” value is -4% and the Z score came out at 0.32.

As for `NS(=O)(=O)N1CCC(CNC(=O)C2CCCCC2)CC1`, the “% Inhibition” value is given as -4% and the Z score is reported as 0.51.

For `Fc1ccc(CN2C[C@@H](F)[C@@H](OCc3nc4ccccc4o3)C2)cc1`, the “% Inhibition” value was determined as 0% and the Z score is -0.07.

For the molecule `Cc1ccc(C)c(-c2nn(CN3CCN(c4cccc(C(F)(F)F)c4)CC3)c(=O)c3ccccc23)c1`, the “% Inhibition” value worked out at 2% and the Z score was -0.34.

`CN(Cc1ccccc1)c1ncccc1CNc1ncc(F)cn1`: the “% Inhibition” value is listed as -10% and the Z score was found to be 1.36.

Consider `Cc1cc(C(=O)NCCCOc2ncccn2)ns1`, for which the “% Inhibition” value is -8% and the Z score worked out at 1.19.

With `CN(CC1CCCN(C2CCc3ccccc3NC2=O)C1)S(C)(=O)=O` (stereo unspecified), the “% Inhibition” value was -15% and the Z score is given as 2.86.

With `CCNC(=O)C1CN(C(=O)[C@H](C)N(C)CC(F)(F)F)C1`, the “% Inhibition” value is given as 28% and the Z score is on record as -3.14.

As for `COCCn1nc(C)c(CN[C@@H](C)c2ccsc2)c1C`, the “% Inhibition” value is given as 7% and the Z score was -1.12.

Regarding `CCc1nc(C)cn1C[C@H]1COCCO1`, the “% Inhibition” value is -3% and the Z score came to 0.35.

As for `CNC(=O)c1sc(N[C@H]2CCOc3ccccc32)nc1C`, the “% Inhibition” value was -12% and the Z score came to 1.18.

Turning to `CCn1ccnc(N2CCCCC2)c1=O`, the “% Inhibition” value is reported as -1% and the Z score came to 0.18.

Consider `Cc1nnc([C@H]2CCN(Cc3ccc(Cl)cc3)C2)o1`, for which the “% Inhibition” value is -7% and the Z score turned out to be 1.31.

Take `Cc1cnccc1CNC(=O)[C@@H]1C[C@H]1C(=O)NCc1ccncc1C`: the “% Inhibition” value was -5% and the Z score worked out at 0.65.

In the case of `CCc1nc(-c2cccc(NC(=O)c3ccc(C)c(NC(=O)c4ccco4)c3)c2)no1`, the “% Inhibition” value is 2% and the Z score is on record as -0.42.

For the molecule `C[C@H](NC(=O)C1CCCC1)c1cccs1`, the “% Inhibition” value was -8% and the Z score is recorded as 1.58.

As for `CC(NC(=O)N1CCCNC(=O)C1C)c1cccc(C#N)c1` (stereo unspecified), the “% Inhibition” value is -2% and the Z score is listed as 0.28.

Take `CN(c1cnccn1)S(=O)(=O)Cc1ccc(Cl)c(F)c1`: the “% Inhibition” value turned out to be 0% and the Z score is given as -0.01.

For `Cc1nn(C)c(C)c1CNc1ncc2cccnc2n1`, the “% Inhibition” value was -9% and the Z score came out at 1.45.

Regarding `CCc1c(C(=O)Nc2cccc3ncccc23)ccn1C`, the “% Inhibition” value came to 3% and the Z score is reported as -0.29.

As for `CCc1nnc(NC(=O)c2ccccc2-c2ccccc2C#N)s1`, the “% Inhibition” value was -11% and the Z score stood at 1.54.

Take `O=C(NCc1cccnc1)N1CCOCC1CC(O)c1cccs1` (stereo unspecified): the “% Inhibition” value is -4% and the Z score is recorded as 0.45.

Turning to `CCc1nn2c(-c3ccccn3)ccnc2c1-c1ccc(F)cc1`, the “% Inhibition” value is recorded as -10% and the Z score is given as 1.47.

As for `Cc1cc(C)c2c(C(=O)N3CCC[C@@H]3C)cc(-c3cnn(C)c3)nc2c1`, the “% Inhibition” value stood at 2% and the Z score is given as -0.32.

Consider `CCCc1cnc(NC(=O)N2CC[C@H](c3cc(=O)[nH]c(=O)[nH]3)C2)s1`, for which the “% Inhibition” value is recorded as -22% and the Z score is 1.86.

Regarding `Cc1ccc(C(=O)N2CCC(N3C(=O)NC4(CCCC4)C3=O)CC2)cc1`, the “% Inhibition” value is recorded as 7% and the Z score is reported as -1.25.

For `COc1ccc(CN2C[C@H]3CN(Cc4ccc5c(c4)OCCO5)CCN3C2=O)cc1`, the “% Inhibition” value is on record as 16% and the Z score is listed as -1.92.

Regarding `O=C(c1ccc(OC(F)F)cc1)N1C[C@H](O)[C@@H](N2CCCC2)C1`, the “% Inhibition” value is given as -5% and the Z score is reported as 0.89.

Regarding `C[C@@H](c1nc2ccccc2c(=O)[nH]1)N1CCC(c2ncco2)CC1`, the “% Inhibition” value was -4% and the Z score is given as 0.55.

`Cc1ccc(NC(=O)c2cn(C)nn2)cc1`: the “% Inhibition” value is given as -9% and the Z score came out at 1.2.

Take `Cc1cc(-n2nc(C)cc2NS(=O)(=O)c2cc(C)oc2C)nc(C)n1`: the “% Inhibition” value is on record as -3% and the Z score is reported as 0.63.

In the case of `Cc1cc(N)ccc1N1CCOCC1=O`, the “% Inhibition” value is given as -4% and the Z score was found to be 0.7.

Take `CCN(C(C)=O)c1nc(CN(Cc2ccc(Cl)c(Cl)c2)C2CC2)cs1`: the “% Inhibition” value amounted to 3% and the Z score is -0.55.

Consider `COc1ccc2c(C)c(C(=O)N3CCCO[C@@H](CN4CCCC4)C3)oc2c1`, for which the “% Inhibition” value is -6% and the Z score worked out at 0.92.

As for `CC(C)c1nc2cc(NC(=O)CCNC(=O)c3cnccn3)ccc2n1C`, the “% Inhibition” value is -9% and the Z score came out at 1.53.

For `O=C(NCC(NC(=O)C1CCOC1)C1CCCCC1)C1CCOC1` (stereo unspecified), the “% Inhibition” value was determined as 2% and the Z score is reported as -0.25.

Turning to `CCn1nc(C)c(Oc2ccccc2O)c1C`, the “% Inhibition” value was 6% and the Z score is recorded as -1.07.

Turning to `Cc1cccc(Cn2nc(CC(N)=O)nc2CCC(F)(F)F)c1`, the “% Inhibition” value is -3% and the Z score is 0.53.
